# Results reported in the supplement of paper PMC4604168 (melanoma cell lines).
# The list shows a part of the results. Many values rest on one well or one pass, so single values are uncertain.
# Legend:
# Assay in all cases: cell count relative to DMSO control; melanoma cells; higher = more viable cells
# Conditions in all cases: library dose: standard library concentration; 72 h
# G361 = tested on: G361
# IPC-298 = tested on: IPC-298
# IST-MEL1 = tested on: IST-MEL1
# LB2518-MEL = tested on: LB2518-MEL
# LOXIMVI = tested on: LOXIMVI
# MEL-HO = tested on: MEL-HO
# MZ2-MEL = tested on: MZ2-MEL
# MeWo = tested on: MeWo
# RPMI7951 = tested on: RPMI7951
# RVH-421 = tested on: RVH-421
# 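Note: cells treated in 1,536-well plates, then fixed and DAPI-stained, with nuclei counted from automated high-throughput microscope images.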
Compound,cell count (G361) [%],cell count (IPC-298) [%],cell count (IST-MEL1) [%],cell count (LB2518-MEL) [%],cell count (LOXIMVI) [%],cell count (MEL-HO) [%],cell count (MZ2-MEL) [%],cell count (MeWo) [%],cell count (RPMI7951) [%],cell count (RVH-421) [%]
"Cc1cc(Nc2cc(N3CCN(C)CC3)nc(/C=C/c3ccccc3)n2)n[nH]1 + O=C(Nc1ccccc1)c1cc([N+](=O)[O-])ccc1Cl [GW9662] (first compound 0.2 µM, partner dose 10 µM)",81.7,94.9,89.5,75.4,64.7,79.2,74.6,83.7,75,75.2
"CC(C)C[C@H](NC(=O)[C@H](Cc1ccccc1)NC(=O)c1cnccn1)B(O)O [Bortezomib] + OCc1c[nH]c2ccccc12 [Indole-3-carbinol] (first compound 0.005 µM, partner dose 4 µM)",1.52,12.2,9.16,5.96,20,31.3,4.6,18,4.6,11.5
"CC(C)C[C@H](NC(=O)[C@H](Cc1ccccc1)NC(=O)c1cnccn1)B(O)O [Bortezomib] + C#Cc1cccc(Nc2ncnc3cc(OCCOC)c(OCCOC)cc23)c1 [erlotinib] (first compound 0.005 µM, partner dose 4 µM)",0.995,10.3,9,3.81,29.6,36,4.85,19.8,5.42,4.19
"COc1ccc(C2=N[C@@H](c3ccc(Cl)cc3)[C@@H](c3ccc(Cl)cc3)N2C(=O)N2CCNC(=O)C2)c(OC(C)C)c1 [Nutlin-3] + CS(=O)(=O)CCNCc1ccc(-c2ccc3ncnc(Nc4ccc(OCc5cccc(F)c5)c(Cl)c4)c3c2)o1 [lapatinib] (first compound 0.5 µM, partner dose 4 µM)",71.1,84.3,109,61.2,58.9,93.2,73.8,99.5,76.1,56.2
"Cc1cn(-c2cc(NC(=O)c3ccc(C)c(Nc4nccc(-c5cccnc5)n4)c3)cc(C(F)(F)F)c2)cn1 [nilotinib] + Nc1cccc2c1CN(C1CCC(=O)NC1=O)C2=O [lenalidomide] (first compound 1 µM, partner dose 5 µM)",80.6,104,95,101,130,78.5,89.4,81.4,89.8,59.5
"Cc1cn(-c2cc(NC(=O)c3ccc(C)c(Nc4nccc(-c5cccnc5)n4)c3)cc(C(F)(F)F)c2)cn1 [nilotinib] + CC(C)CCN1c2nc(Nc3cc(F)c(O)c(F)c3)ncc2N(C)C(=O)C1C [BID1870] (first compound 1 µM, partner dose 1 µM)",74.3,87.3,81.6,82.4,92.9,64.9,90.4,72.8,106,13.7
"Cc1cc(Nc2cc(N3CCN(C)CC3)nc(/C=C/c3ccccc3)n2)n[nH]1 + CCCS(=O)(=O)Nc1ccc(F)c(C(=O)c2c[nH]c3ncc(Cl)cc23)c1F [PLX4720] (first compound 0.2 µM, partner dose 0.4 µM)",69.9,72.8,91.9,82.3,107,83.3,85.3,90.4,78.7,63.6
"CC(C)C[C@H](NC(=O)[C@H](Cc1ccccc1)NC(=O)c1cnccn1)B(O)O [Bortezomib] + COc1ccc(COc2ccc(Cc3cnc(N)nc3N)cc2OC)cc1 [GW2580] (first compound 0.005 µM, partner dose 5 µM)",1.29,21.7,11.9,4.28,25.5,35,3.6,10.5,7.84,160
"COc1ccc(C2=N[C@@H](c3ccc(Cl)cc3)[C@@H](c3ccc(Cl)cc3)N2C(=O)N2CCNC(=O)C2)c(OC(C)C)c1 [Nutlin-3] + Cc1cc(N2CCOCC2)cc2[nH]c(-c3c(NC[C@@H](O)c4cccc(Cl)c4)cc[nH]c3=O)nc12 [BMS536924] (first compound 0.5 µM, partner dose 1 µM)",63.1,106,98.5,76.2,73.6,96.8,117,78.2,126,60.3
"Cc1cc(Nc2cc(N3CCN(C)CC3)nc(/C=C/c3ccccc3)n2)n[nH]1 + C=CCNC1=C2C[C@@H](C)C[C@H](OC)[C@H](O)[C@@H](C)/C=C(\C)[C@H](OC(N)=O)[C@@H](OC)/C=C\C=C(/C)C(=O)NC(=CC1=O)C2=O [Tanespimycin] (first compound 0.2 µM, partner dose 0.01 µM)",75,107,65.9,78.5,128,80.9,127,59.3,11.2,110
"Cn1c(=O)n(-c2ccc(C(C)(C)C#N)cc2)c2c3cc(-c4cnc5ccccc5c4)ccc3ncc21 + O=S(=O)(c1ccccc1)N(CC(F)(F)F)c1ccc(C(O)(C(F)(F)F)C(F)(F)F)cc1 [T0901317] (first compound 0.02 µM, partner dose 7 µM)",40.7,70.1,80.6,68,66.2,67.2,59.7,63,62.1,96.3
"COc1ccc(C2=N[C@@H](c3ccc(Cl)cc3)[C@@H](c3ccc(Cl)cc3)N2C(=O)N2CCNC(=O)C2)c(OC(C)C)c1 [Nutlin-3] + OCc1c[nH]c2ccccc12 [Indole-3-carbinol] (first compound 0.5 µM, partner dose 4 µM)",81.5,104,97.7,96.5,58.7,96.1,112,135,105,63.1
"COc1ccc(C2=N[C@@H](c3ccc(Cl)cc3)[C@@H](c3ccc(Cl)cc3)N2C(=O)N2CCNC(=O)C2)c(OC(C)C)c1 [Nutlin-3] + CCCS(=O)(=O)Nc1ccc(F)c(C(=O)c2c[nH]c3ncc(Cl)cc23)c1F [PLX4720] (first compound 0.5 µM, partner dose 0.4 µM)",63.4,71.6,106,78.7,79.8,100,75.9,119,146,73.9
"CC(C)C[C@H](NC(=O)[C@H](Cc1ccccc1)NC(=O)c1cnccn1)B(O)O [Bortezomib] + COC(=O)c1sccc1S(=O)(=O)Nc1ccc(Nc2ccccc2)cc1OC [GSK0660] (first compound 0.005 µM, partner dose 5 µM)",0.768,7.92,4.28,2.37,64.2,22.6,5.23,5.96,5.61,9.55
"Cn1c(=O)n(-c2ccc(C(C)(C)C#N)cc2)c2c3cc(-c4cnc5ccccc5c4)ccc3ncc21 + Oc1cc(-c2nc(-c3ccccc3)[nH]c2-c2ccncc2)ccc1Cl [L779450] (first compound 0.02 µM, partner dose 1 µM)",29.9,67.3,61.7,96.5,82.4,48.7,71.9,55.5,52.4,71.2
"COc1ccc(C2=N[C@@H](c3ccc(Cl)cc3)[C@@H](c3ccc(Cl)cc3)N2C(=O)N2CCNC(=O)C2)c(OC(C)C)c1 [Nutlin-3] + Nc1nc(F)nc2c1ncn2[C@@H]1O[C@H](CO)[C@@H](O)[C@@H]1O [fludarabine] (first compound 0.5 µM, partner dose 1 µM)",84.9,65.8,80.2,71.7,66.3,80,103,102,84.4,85.2
"Cc1cn(-c2cc(NC(=O)c3ccc(C)c(Nc4nccc(-c5cccnc5)n4)c3)cc(C(F)(F)F)c2)cn1 [nilotinib] + COc1ccc2c(c1)CCC1C2CCC2(C)C(NCCCCCCN3C(=O)C=CC3=O)CCC12 [U73122] (first compound 1 µM, partner dose 2 µM)",87.5,103,82.9,90.2,83.3,84.7,102,49.5,29.7,89.5
"Cn1c(=O)n(-c2ccc(C(C)(C)C#N)cc2)c2c3cc(-c4cnc5ccccc5c4)ccc3ncc21 + Nc1cccc2c1CN(C1CCC(=O)NC1=O)C2=O [lenalidomide] (first compound 0.02 µM, partner dose 5 µM)",61,74.9,77.2,85.2,62,84.6,87.3,67.5,67.7,78.3
"Cc1cn(-c2cc(NC(=O)c3ccc(C)c(Nc4nccc(-c5cccnc5)n4)c3)cc(C(F)(F)F)c2)cn1 [nilotinib] + Oc1cc(-c2nc(-c3ccccc3)[nH]c2-c2ccncc2)ccc1Cl [L779450] (first compound 1 µM, partner dose 1 µM)",58.5,88.8,87.7,88.9,147,86.8,114,83.4,72.8,65
"CC(C)C[C@H](NC(=O)[C@H](Cc1ccccc1)NC(=O)c1cnccn1)B(O)O [Bortezomib] + O=C(CCCCCCC(=O)Nc1ccccc1)NO [vorinostat] (first compound 0.005 µM, partner dose 0.4 µM)",0.945,12.5,5.98,2.53,6.61,24.6,7.76,12.8,2.9,0.882
"COc1ccc(C2=N[C@@H](c3ccc(Cl)cc3)[C@@H](c3ccc(Cl)cc3)N2C(=O)N2CCNC(=O)C2)c(OC(C)C)c1 [Nutlin-3] + O=C(O)C(=O)Nc1sc2c(c1C(=O)O)CCNC2 [TCS401] (first compound 0.5 µM, partner dose 8.33333 µM)",61,91.4,96.1,78,68.6,83.2,115,99.6,96.2,45.8
